{"source": "the supplement of paper PMC12632987", "binders": {"B1": {"name": "traf2_out_11_79_932 (protein)", "chain": "SEKRKELEELLERARELVERLIELLEAGTLSPEEFAALIEEILRLLQRAAELALELGYSDVLVLISEARRHVLLSRDRDLEHARKALEYLEKALEELKKL"}, "B2": {"name": "traf2_out_20_3_2259 (protein)", "chain": "EELKKKAEEYLKKAEELLEEVKPHLPPEVAAEAERLLKELKKAFKTDVSDAMVYASELKRLALERAEEARAAGDEELAAKLEELADTLNKLLHYLYLIAQ"}, "B3": {"name": "traf2_out_13_95_1179 (protein)", "chain": "SEETKKKINEIADEMIDKVEAILDAASKAVADDPEVKAALDAIKKTARTKGISTAIHQLKELSAANPAYKELLDAALKEIEAVRREAGKKVAEILKKEEE"}, "B4": {"name": "traf2_out_17_162_1474 (protein)", "chain": "MSIEERVAELEKELKELEKRVKELEEKLKELEKKSKEEITDLLVEVSEIRRRARELAEEFRALAPEIGEETAKELADRAEEIAERAQKIANEIYKELEKK"}, "B5": {"name": "traf2_out_13_95_1134 (protein)", "chain": "SKETAEKIMAVADEMLEKSEEILEKLLAEAKKKGKLEEEIKEVLYLNRYRSINEAIHKLKELAKKYPEFKEELDAAIEKLEEIKREAGRRVAKILKEEKE"}, "B6": {"name": "traf2_out_6_156_2413 (protein)", "chain": "MVEKIFEETLKKVEELIKKLSKASEEKKISYISKIAGTVYKALQQLREAGASLEEIKEFSERLKKEIEKLLKEAGLDEKTRNLVLSSVNAVFTVAIEEAK"}, "B7": {"name": "traf2_out_17_178_1665 (protein)", "chain": "TKEEERKKISELTDKLIDLAEAAADRALALAEREGDLSPEELAALREARRRGSATDVRALMRRWIPRLRSAAELGALLEEFEAEYRKLSKEIAEAYEKYE"}, "B8": {"name": "traf2_out_13_95_1151 (protein)", "chain": "SAETAAKINAVADEMLDKVEKLLEELLEIAKKKGVPTEPIQKALDLARNRSINEAIHLLKELAKEYPELKEELEKTIEEIEKLKEEAGRRVAEILKEAEA"}, "B9": {"name": "traf2_out_20_38_2000 (protein)", "chain": "SMEEEEERLLEEEIEAANEAEDEAAAWVAELQAAGKSVEEIAAEAKARVDELLTAAGLEEERDDLVADIDLALSSPDAVRLITRILARAITLVRQKELRK"}, "B10": {"name": "traf2_out_13_95_1116 (protein)", "chain": "SKELAEKIMEIADKALEEANKLLDELLEKIKASGKLDPEVEKALEEAKKSTIRTAIHTLKELSKKYPEFKELFDETIKKLEEIRRKAGKEVAKLIKEEEE"}, "B11": {"name": "traf2_out_11_155_764 (protein)", "chain": "KEKQEIYQEYNDKVSEIADELDAKLEEIVAELAERDPETAARVRAVLEAHRDASARSRALLAARILEEAGHEELAKRVLEAVEEAQKKMNEIAIETEKKL"}, "B12": {"name": "traf2_out_13_95_1163 (protein)", "chain": "EEEKTKKIREVASEAADKMEEVARDFRDRVEALTGDPEARALTDRVVRVTNEYTLEHVADELIAKYPEHAAEIRALRDEALAKLREIRKETTKKLNEIEE"}, "B13": {"name": "traf2_out_20_38_2034 (protein)", "chain": "SMEEEEEEKLEEIIEVANEALDKYEAEIAKWKAEGKTVEEIAEEAKKKVKELLSKVGLEEEAKILIEEIDLALSSPDAERLIARTLARAEALVKQKELNE"}, "B14": {"name": "traf2_out_6_3_2521 (protein)", "chain": "SEESLRRDARRVLEGMDIKTAEQLKTLVKAEVNAVKKLVSRPDTDEATLAGAESVLELSRAIVEVAAEELPDLTEEDVKELKELIEEARKLIEKKRKELE"}, "B15": {"name": "traf2_out_6_156_2385 (protein)", "chain": "MAEEILKETLEKIEKYIKALSEAPEEKKIAYINKIAGTVYRGLQRLRAAGASLEELREFVERVKEEVEKWLKENGLDESTKNLILASINAVGEVALREAA"}, "B16": {"name": "traf2_out_9_17_2625 (protein)", "chain": "AEAEERRREHLLEAAEEILEELVKRGLITEEEAEEILERVREAIERGMSPEEVIALFLGDIASVLLFDKNLSLKEVQRIVGEVYRRLRELLRRREEEERA"}, "B17": {"name": "traf2_out_3_89_2286 (protein)", "chain": "SSEREEKLEELRKIIDRYLRGFRKSATRVAKEMLEEGYSLETLRGVLEASRTALIEEIREIAKERGLSEEDIKELVEEATKRLDEIVAEILAEAEKARAA"}, "B18": {"name": "traf2_out_14_166_1288 (protein)", "chain": "MSPEEIERIREIVDKLEPLTKEAVAEAEALLAENAGRLTPEQLARANELLAIARRNIGSSAINALREMAKLAKEAGLEETAKKFKALAEKLEKKLKELNK"}, "B19": {"name": "traf2_out_18_3_1918 (protein)", "chain": "SEEKLKEVSEKIDKIVDEARKKAEEALERGAKEHPEFKERFEELREDLEAGAGPFGILEALAELFKEAGDEESAKEIEEFLREKKKELQKLVDEYEELLK"}, "B20": {"name": "traf2_out_11_155_726 (protein)", "chain": "SKFKEAQNKIVDFNLEVGDELLKKVEEIIKEIEKEDPEVAKKLREVVEKYKKFSNRSAARAAIDLLREEGYEEYAERLEKALEEAQRKMSKKTQEIEKEL"}, "B21": {"name": "traf2_out_1_27_993 (protein)", "chain": "SDKEIAERIRKASKEMANSSLEEKLKIAKELIREMAEIGKGDARTAAVILVSTMKTDEEFEALLKAIEETFKELGWSEEEIEEVRRQMETMWKLLKKAYA"}, "B22": {"name": "traf2_out_18_167_1849 (protein)", "chain": "EKEIEEKRRELSDRLVQLSEVKRLARRALQALETDPSTVPATLAALEAAAASIPELQPLVAAARAALAAGDREGLRATLEALIEKAQKLMNEVLKEYEAL"}, "B23": {"name": "traf2_out_15_180_1321 (protein)", "chain": "MTEEELQRRIDLANEVADRVQDRLRELLAANPELSPEERAALRELARSLTTLLLNGEWAEAEAALARAEARLSPRAAAVARELYAFAREVVAAAKAELAA"}, "B24": {"name": "traf2_out_11_155_731 (protein)", "chain": "EKKEKARREIVDFAIEQGDELEAFVEALIKEVEKEDPELAKELRAVFEEHRKYSARSAALAAIDVLRKHGYEERAEELEKKIEEANKKASEFIKKIEEEL"}, "B25": {"name": "traf2_out_20_3_2051 (protein)", "chain": "EELEKELEKELEKLEKLLKEIEKLVDPETAAKLKELLEKVKKAKKEGYEEFLIALSELRRALLEFAEEARAAGKEEVAALLEEAAEEVQEALNIIYKIIE"}, "B26": {"name": "traf2_out_9_17_2621 (protein)", "chain": "AAAAEAERAAILEVTDEILEELIKEGLITEEEAEKIREKVEEAIAAGKTPEEVKALFLGSIASILLQPDGLSVQEAQKVVGEVYRRWNELLAARRAAAAA"}, "B27": {"name": "traf2_out_1_156_902 (protein)", "chain": "SNADKQYEALKAYLHQPKRSAILRAVAGHLADAEDILEEARREGLPEEVLERLEELRDRIKALLGRMVSDTSLTDEELEALLAEAKALAEEARKILEEAR"}, "B28": {"name": "traf2_out_6_169_2489 (protein)", "chain": "SMKEKLEKEAKEKYERAKELLEIAETIYNQVINNKKYDKIETYIEALENILSATKRQYDLAIEAYKKLGKEEEAKKLEKEKEEVTEKIKKMIEEIKELKK"}, "B29": {"name": "traf2_out_20_3_2076 (protein)", "chain": "KELLEELEKELDKAIKLLKEAAAKADKETAKKLKELIEELKKSRELSISDRLVKVSEVRRKVRELAEKAKAAGKKELAALLEEAADELNRAAQLLYKILE"}}, "note": "The full ranking holds about 1,800 sequences; the median of “median log2 fold change of GCK-ALFA target abundance (FLAG IP / Myc IP barcode read proportion)” is about 0.14, and the lowest 2% start at about -0.84. This is one part of the list.", "data": [{"target": "T1, TRAF2, Q12933", "T1 chain": "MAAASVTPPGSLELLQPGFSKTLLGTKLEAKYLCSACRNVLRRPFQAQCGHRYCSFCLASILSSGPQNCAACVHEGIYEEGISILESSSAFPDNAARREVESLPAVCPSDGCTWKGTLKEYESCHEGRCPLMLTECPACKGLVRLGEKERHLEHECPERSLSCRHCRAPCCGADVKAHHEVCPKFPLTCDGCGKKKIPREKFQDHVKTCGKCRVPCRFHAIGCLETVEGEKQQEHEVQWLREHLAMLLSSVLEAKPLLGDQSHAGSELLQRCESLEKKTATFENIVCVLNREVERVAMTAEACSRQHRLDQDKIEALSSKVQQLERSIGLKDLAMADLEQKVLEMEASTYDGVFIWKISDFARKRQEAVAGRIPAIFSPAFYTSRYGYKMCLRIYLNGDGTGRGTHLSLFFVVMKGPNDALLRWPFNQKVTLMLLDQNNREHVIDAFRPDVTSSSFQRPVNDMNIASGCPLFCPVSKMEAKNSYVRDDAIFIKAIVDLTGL", "experiment": "median log2 fold change of GCK-ALFA target abundance (FLAG IP / Myc IP barcode read proportion) (log2 ratio); each designed protein is fused to an ALFA-tag nanobody in HEK293 cells to bring the named protein to FLAG-tagged glucokinase (GCK); Myc marks an untargeted standard; higher = target protein stabilised (more abundant)", "conditions": "target protein: 3xFLAG-MCP-GCK-ALFA reporter; HEK293 landing pad (RPLP)", "procedure,_shortened": "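An ALFA-nanobody-fused binder library was recombined into HEK293 landing-pad cells and induced with 2 μg mL^−1 doxycycline. Cells were transfected with a plasmid expressing a FLAG-tagged target and a Myc-tagged standard. After 48 h, lysates underwent anti-FLAG and anti-Myc immunoprecipitation, and circular RNA barcodes were reverse transcribed, amplified and sequenced. Target abundance is the per-binder median log2 ratio of FLAG to Myc barcode read proportions. Barcodes needed ≥10^−7 proportion in both replicates, binders ≥3 barcodes per replicate, and a 10^−6 pseudocount was added; the two replicates were pooled.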", "values": [{"binder": "B1", "median log2 fold change": 0.216}, {"binder": "B2", "median log2 fold change": 0.407}, {"binder": "B3", "median log2 fold change": -0.492}, {"binder": "B4", "median log2 fold change": 0.345}, {"binder": "B5", "median log2 fold change": -0.234}, {"binder": "B6", "median log2 fold change": 0.231}, {"binder": "B7", "median log2 fold change": 0.057}, {"binder": "B8", "median log2 fold change": -0.0175}, {"binder": "B9", "median log2 fold change": 0.404}, {"binder": "B10", "median log2 fold change": 0.062}, {"binder": "B11", "median log2 fold change": 0.259}, {"binder": "B12", "median log2 fold change": 0.254}, {"binder": "B13", "median log2 fold change": -0.126}, {"binder": "B14", "median log2 fold change": -0.093}, {"binder": "B15", "median log2 fold change": -0.0467}, {"binder": "B16", "median log2 fold change": 0.259}, {"binder": "B17", "median log2 fold change": -0.289}, {"binder": "B18", "median log2 fold change": 0.219}, {"binder": "B19", "median log2 fold change": 0.156}, {"binder": "B20", "median log2 fold change": 0.469}, {"binder": "B21", "median log2 fold change": -0.447}, {"binder": "B22", "median log2 fold change": 0.139}, {"binder": "B23", "median log2 fold change": 0.221}, {"binder": "B24", "median log2 fold change": 0.0471}, {"binder": "B25", "median log2 fold change": 0.215}, {"binder": "B26", "median log2 fold change": -0.109}, {"binder": "B27", "median log2 fold change": 0.0835}, {"binder": "B28", "median log2 fold change": -0.103}, {"binder": "B29", "median log2 fold change": 0.0533}]}]}
